Data published in the supplement of paper PMC11417369.
± gives the standard deviation of the averaged measurements. The list shows a part of the results.

These sequences were tested on PfAP2-G AP2 domain (GST-tagged) (assay: gcPBM binding intensity (ln(normalized median fluorescence intensity)); higher = stronger DNA binding).
In short: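 In this array assay, P. falciparum DNA-binding domains with a GST tag, expressed in E. coli, were applied for 1 h to primer-extended double-stranded 36-bp intergenic genomic probes and negative controls on an Agilent 4 × 180k array. Bound protein was visualised with Alexa488 anti-GST antibody at 488 nm. Binding intensity is the highest Masliner-normalised natural-log median intensity across replicate spots of either probe orientation.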
“AAAAAAACAGAAAACACACAAATTATCTTATAATTA [CACACA_site6282]” was tested, and the “gcPBM binding intensity (ln)” value was 9.63 ± 0.11. TTTATAAAGGGAAAGGTGCAAAAGGTGAAAGTTTTA was tested, and the “gcPBM binding intensity (ln)” value was 9.95 ± 0.11. For “TATTTTTCTTTTTAAGTGCATGGTTGTATAAAATTT [GTGCAC_site9480]”, the “gcPBM binding intensity (ln)” value was 10.3 ± 0.14. “TATATATATATTTAATGTACATGTTTATTTTATCAT [XGTACX_site499]” was tested, and the “gcPBM binding intensity (ln)” value was 11.1 ± 0.5. In the case of “AATAAAATAAAAAAAAATAAAAAAAAAATAAAAAAT [XGTACX_negctrl_site245]”, the “gcPBM binding intensity (ln)” value is reported as 9.37 ± 0.11. With “TCTTTTTTGAAGCATTTTGTTTTTTAATAAGTAAAA [TGCATGCA_negctrl_site247]” the “gcPBM binding intensity (ln)” value was 9.92 ± 0.2. With “ATATATATTATATATGCATGCCAAATCTTTATAAAC [TGCATGCA_site1042]” the “gcPBM binding intensity (ln)” value was 9.97 ± 0.071. “ACAAAAAAATATTTATGTACTTATTATATTTATAAT [XGTACX_site2059]” was tested, and the “gcPBM binding intensity (ln)” value was 11.4 ± 0.93. For “CTTTTTACTTAATACACACACACACTAAAAAAAAAA [CACACA_site6574]”, the “gcPBM binding intensity (ln)” value was 10.5 ± 0.53. For “AAAACTAAATGTTATTCGCACACGGAATTTATTTAA [CACACA_site9221]”, the “gcPBM binding intensity (ln)” value was 9.955 ± 0.007. In the case of “ATAAAGAAATTACACACATGCAATGAAAAAAAAAAA [TGCATGCA_site406]”, the “gcPBM binding intensity (ln)” value is reported as 9.8 ± 0.071. For “ACATATATATATATATATATATATATATATAGATAG [CACACA_negctrl_site783]”, the “gcPBM binding intensity (ln)” value was 10.2 ± 0.57. In the case of “TACTAAGAAGTATTTACACACCAACAAGGCGAAAAA [CACACA_site2944]”, the “gcPBM binding intensity (ln)” value is reported as 10.3 ± 0.29. For “ATAAATAATATGTAAACACACAAAAAATAAAAATGA [CACACA_site1178]”, the “gcPBM binding intensity (ln)” value was 10.06 ± 0.071. With “ATGTTTGAGCCTAAGGTGCATATAAAAATATATGTG [GTGCAC_site9690]” the “gcPBM binding intensity (ln)” value was 10.4 ± 0.38. For “ATATGTATAAAAATCCGTACATAAGTGTGCGTATAT [XGTACX_site4376]”, the “gcPBM binding intensity (ln)” value was 11.2 ± 0.88. “TTGAGCCTACAAAAGGGTACACATTCAATTTATTTT [XGTACX_site6570]” was tested, and the “gcPBM binding intensity (ln)” value was 11.3 ± 0.76. With “AAAAAAAAAAGAAATTGTACTTTTTGTTTAATAATT [XGTACX_site4681]” the “gcPBM binding intensity (ln)” value was 11.1 ± 0.64. For “ATATTTTGTTATGAAACACACACATATATATATATA [CACACA_site9216]”, the “gcPBM binding intensity (ln)” value was 10.3 ± 0.4. For “ATTATATACAAATAAAGTACATAAACAAATTCAGAA [XGTACX_site1187]”, the “gcPBM binding intensity (ln)” value was 11.4 ± 0.84. In the case of “TATTTCAAACTGTTCTCACACACGAAATTAGAAATG [CACACA_site611]”, the “gcPBM binding intensity (ln)” value is reported as 10.2 ± 0.24. For “TTTTGAATATGGATCTTATATATATTAAATAAATAA [CACACA_negctrl_site344]”, the “gcPBM binding intensity (ln)” value was 9.79 ± 0.12. In the case of “ATTCCAGAAATATATTAACAAGGAAAATATAAAAAT [CACACA_negctrl_site343]”, the “gcPBM binding intensity (ln)” value is reported as 9.89 ± 0.042. For “AAGAAGAATAGGCGTTGTACGGAATGTAGTAGAGTT [XGTACX_site2430]”, the “gcPBM binding intensity (ln)” value was 10.9 ± 0.55. For “ATAAGGTTACAACAAACACACAAAGGAATATACGCA [CACACA_site4090]”, the “gcPBM binding intensity (ln)” value was 10.18 ± 0.099. For “TTGTATTCATATGGTTGTACATATTAAAAGTTCTAA [XGTACX_site7255]”, the “gcPBM binding intensity (ln)” value was 11.1 ± 0.67. For “TTAATATAAATATGATTTTTGATTCCTATACTATTT [CACACA_negctrl_site752]”, the “gcPBM binding intensity (ln)” value was 9.765 ± 0.078. In the case of ATATATATAACAAAAGTGCATTAAGGGGATGCTATA, the “gcPBM binding intensity (ln)” value is reported as 10.1 ± 0.2. “TTATTATAAATAGGTAGTACATTTTGAACAAATATT [XGTACX_site8866]” was tested, and the “gcPBM binding intensity (ln)” value was 11.5 ± 0.95. With “AATATAAATATAGGAAATGTAGTTAAAAGGTGTATG [CACACA_negctrl_site1233]” the “gcPBM binding intensity (ln)” value was 10.13 ± 0.035. For “TTTATTTTTAAAGGCACACACATTTTTATTTTTAAA [CACACA_site2021]”, the “gcPBM binding intensity (ln)” value was 10.1 ± 0.19. With “TTCTTTTTTTTCAGTTGTACTTATAAGAAAGAAAAA [XGTACX_site4028]” the “gcPBM binding intensity (ln)” value was 11.5 ± 1. “TTTATTTATAGAATTACACACATATATACACAAATG [CACACA_site7338]” was tested, and the “gcPBM binding intensity (ln)” value was 10.3 ± 0.26. With “ATTCTATAGAAACACACACACATGCATGCACCTATA [CACACA_site107]” the “gcPBM binding intensity (ln)” value was 10.2 ± 0.26. In the case of “TTATATATATATGTATGTACTTATAACTTTTATTAG [XGTACX_site3190]”, the “gcPBM binding intensity (ln)” value is reported as 11.2 ± 0.83. In the case of “ATACGACAAATATAAAGTACAAGCTTGGTTTTTATA [XGTACX_site8103]”, the “gcPBM binding intensity (ln)” value is reported as 11.2 ± 0.88. “TATGCAAGGAACCACACACACACACGGAAATGTATA [CACACA_site6490]” was tested, and the “gcPBM binding intensity (ln)” value was 10.3 ± 0.3. “AATTATGGGGAAAAGACACACATATATATATATATA [CACACA_site2589]” was tested, and the “gcPBM binding intensity (ln)” value was 10.2 ± 0.54. For “ATATATATATATAACACACGCAAAAAAATTAAATAA [CACACA_site1400]”, the “gcPBM binding intensity (ln)” value was 10.4 ± 0.57. For “TATGGGTATGTATTCACACATAACAAAAATATCAAA [CACACA_site5059]”, the “gcPBM binding intensity (ln)” value was 10.2 ± 0.22. “TTTTATATATTCAATTGTACATGTATTTTTTTTTTT [XGTACX_site3584]” was tested, and the “gcPBM binding intensity (ln)” value was 11 ± 0.63. For “ATAAATTTACTTGATTGTACATTTCTTAGTTGTATT [XGTACX_site3057]”, the “gcPBM binding intensity (ln)” value was 10.8 ± 0.48. With “TTATATGTCAATTTGCGTACATACATAATTACATAT [XGTACX_site1546]” the “gcPBM binding intensity (ln)” value was 11.5 ± 1.1. For “AATTTTAATTTTTTGACACACATATAATATATATAT [CACACA_site3978]”, the “gcPBM binding intensity (ln)” value was 10.2 ± 0.28. “TATACTGATAAAAAAAGTACTAGAGTTTGTAAAAAT [XGTACX_site3934]” was tested, and the “gcPBM binding intensity (ln)” value was 11.2 ± 0.76. In the case of “CACAAGAAAGTTCACACACACACATATATATATATA [CACACA_site6009]”, the “gcPBM binding intensity (ln)” value is reported as 10.2 ± 0.33. In the case of “TTAATATTTTTAATTTGTACATATAATTAAATCTCT [XGTACX_site1736]”, the “gcPBM binding intensity (ln)” value is reported as 10.9 ± 0.51. For “GAAAATTATGTATATTGTACAAATATTATATTAAAT [XGTACX_site2467]”, the “gcPBM binding intensity (ln)” value was 10.7 ± 0.25. For “TATAAAATTTAAATTATACACACTTAAGTAACATCA [CACACA_site531]”, the “gcPBM binding intensity (ln)” value was 10.3 ± 0.25. With “CAAGGACAATTTACAAACATAATATATGTATATATA [TGCATGCA_negctrl_site5]” the “gcPBM binding intensity (ln)” value was 9.995 ± 0.064. For “TTGAATACATATATATGTACATATTCTATGGTTAGA [XGTACX_site4088]”, the “gcPBM binding intensity (ln)” value was 11.2 ± 0.79. In the case of “ATCAAACAAAAAATAAAAAAATGCGACATGTGTACA [TGCATGCA_negctrl_site164]”, the “gcPBM binding intensity (ln)” value is reported as 11 ± 0.47. For “CTGAGGAAGCTAATTACACACATGCATATTTTTTTT [CACACA_site2177]”, the “gcPBM binding intensity (ln)” value was 9.87 ± 0.11. With “ATTATCTTCAAGTATGTACACACTATATATAATAAA [CACACA_site2441]” the “gcPBM binding intensity (ln)” value was 11.3 ± 0.76. With “ATGTAAAAATAAAGATGTACATGTATATATATATAT [XGTACX_site5193]” the “gcPBM binding intensity (ln)” value was 11.2 ± 0.71. For “TTTTTTTTACATGAACGTACATAATATATTTTATAA [XGTACX_site5249]”, the “gcPBM binding intensity (ln)” value was 11.1 ± 0.72.
